From a collection of fitness landscapes (doi:10.1016/j.celrep.2020.107928)
In all, about 81,000 sequences were measured (“one-hybrid fitness for binding NBS DNA”: median about -0.1, highest 2% from about 0.36 on). Some of the results follow.

B1: Caulobacter ParB omega fusion; a variant is named by its letters at X, in order, B8GW30 (parent)
chain: MESVVVGEPGMSEGRRGLGRGLSALLGEVDAAPAQAPGEQLGGSREAPIEILQRNPDQPRRTFREEDLEDLSNSIREKGVLQPILVRPSPDTAGEYQIVAGERAWRAAQRAGLKTVPIMVRELDDLAVLEIGIIENVQRADLNVLEEALSYKVLMEKFERTQENIAQTIGKSXSHVANXMRLLXLPDEVQSYLVSGELTAXHARAIAAAADPVALAKQIIEGGLSVRETEALARKAPNLSAGKSKGGRPPRVKDTDTQALESDLSSVLGLDVSIDHRGSTGTLTITYATLEQLDDLCNRLTRGI

Variants of: B1
Assay: one-hybrid fitness for binding NBS DNA (the Noc-binding site; scaled: cognate 1, non-cognate 0); higher = stronger binding
Settings: with NBS DNA site
Method in brief: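 Bacterial one-hybrid selection in E. coli USO rpoZ- hisB- pyrF- with a HIS3 reporter carrying the site 19 bp from the promoter, screening Caulobacter ParB libraries with four specificity codons randomised (NNS). Cells grew 48 hours at 37°C on M9-minus-histidine plus 0.1 mM IPTG and 5 mM 3-AT. Plasmids before and after selection were Illumina-sequenced, three replicate libraries pooled, and variants under 10 reads dropped. Fitness is the log change in variant-to-wild-type read ratio, rescaled to cognate 1, non-cognate 0.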

Variant	one-hybrid fitness for binding NBS DNA
PNYC	≤ 0.2
ETTT	≤ 0.2
QKSI	≤ 0.2
ARVG	≤ 0.2
VKRM	≤ 0.2
LYNV	≤ 0.2
SPVY	≤ 0.2
GKQC	≤ 0.2
SEGC	≤ 0.2
VVVK	≤ 0.2
GNVS	≤ 0.2
GVFT	≤ 0.2
YGNR	≤ 0.2
QCGY	0.3
SYRV	≤ 0.2
LRAC	≤ 0.2
LTSA	≤ 0.2
FRLC	≤ 0.2
WNPV	≤ 0.2
NRQK	≤ 0.2
CETS	≤ 0.2
QGNI	≤ 0.2
RKDA	≤ 0.2
PQSG	≤ 0.2
RGMQ	≤ 0.2

Variant	one-hybrid fitness for binding NBS DNA
RTHD	≤ 0.2
EDEG	≤ 0.2
RQYM	≤ 0.2
TRIV	≤ 0.2
RRWR	0.732
TVSG	≤ 0.2
VLPA	≤ 0.2
QYTI	≤ 0.2
DHKC	≤ 0.2
FANT	≤ 0.2
TAWT	≤ 0.2
KHRM	≤ 0.2
SIDT	≤ 0.2
LLLR	≤ 0.2
GHDY	≤ 0.2
QPVG	≤ 0.2
HLES	≤ 0.2
RNSF	≤ 0.2
DAME	≤ 0.2
SHDP	≤ 0.2
AFGF	≤ 0.2
NACN	≤ 0.2
VQLS	≤ 0.2
NHQG	≤ 0.2
HLAL	≤ 0.2

Variant	one-hybrid fitness for binding NBS DNA
VQTV	≤ 0.2
KGKL	≤ 0.2
AQVF	≤ 0.2
VVTD	≤ 0.2
AFHF	≤ 0.2
HLHC	≤ 0.2
FCDS	≤ 0.2
SLDW	≤ 0.2
PGYC	≤ 0.2
RHRE	≤ 0.2
SWLV	≤ 0.2
QTTG	≤ 0.2
FSYN	≤ 0.2
LDVV	≤ 0.2
FVDV	≤ 0.2
HLDP	≤ 0.2
CTPE	≤ 0.2
TNIN	≤ 0.2
LQLR	≤ 0.2
HVHY	≤ 0.2
IKVA	≤ 0.2
AHQC	≤ 0.2
QQYI	≤ 0.2
APMP	≤ 0.2
RDHM	≤ 0.2

Variant	one-hybrid fitness for binding NBS DNA
HVSD	≤ 0.2
RYSE	≤ 0.2
RWMS	≤ 0.2
DPWF	≤ 0.2
LFYY	≤ 0.2
ILFD	≤ 0.2
HPYC	≤ 0.2
MLIT	≤ 0.2
ETAF	≤ 0.2
PCRM	≤ 0.2
RKLY	≤ 0.2
CSSL	≤ 0.2
TKWK	≤ 0.2
ADYS	≤ 0.2
PGCG	≤ 0.2
PHVP	≤ 0.2
YQQL	≤ 0.2
VMLT	≤ 0.2
HAAF	≤ 0.2
AKQS	≤ 0.2
FANV	≤ 0.2
HGEG	≤ 0.2
CLFT	≤ 0.2
CTSS	≤ 0.2
SHLF	≤ 0.2

Variant	one-hybrid fitness for binding NBS DNA
AEVC	≤ 0.2
RPIC	≤ 0.2
LDCR	≤ 0.2
SNSP	≤ 0.2
PVPT	≤ 0.2
RQSM	≤ 0.2
DLVL	≤ 0.2
HYNC	≤ 0.2
IAKC	≤ 0.2
RFFS	≤ 0.2
KSLM	≤ 0.2
WHTT	≤ 0.2
QLEE	≤ 0.2
QCRW	0.371
SITC	≤ 0.2
TRRT	0.526
HYLT	≤ 0.2
DHHS	≤ 0.2
PLQV	≤ 0.2
LHEE	≤ 0.2
IPNY	≤ 0.2
MNMT	≤ 0.2
RPAF	≤ 0.2
DQPG	≤ 0.2
RYPH	≤ 0.2

Variant	one-hybrid fitness for binding NBS DNA
ADQW	≤ 0.2
QSQG	≤ 0.2
YTPF	≤ 0.2
HEYW	≤ 0.2
QGPC	≤ 0.2
INRY	≤ 0.2
VRMF	≤ 0.2
SSEV	≤ 0.2
QFRI	≤ 0.2
KLHG	≤ 0.2
RRRG	0.497
VMYY	≤ 0.2
QQMV	≤ 0.2
LEFR	≤ 0.2
PRSN	≤ 0.2
QMLE	≤ 0.2
RFAC	≤ 0.2
RTFH	≤ 0.2
VIFT	≤ 0.2
LICG	≤ 0.2
KRDM	≤ 0.2
EWQP	≤ 0.2
GRSG	≤ 0.2
SITN	≤ 0.2
IIHR	≤ 0.2

Variant	one-hybrid fitness for binding NBS DNA
HPDW	≤ 0.2
RVNR	0.55
SWDR	≤ 0.2
HRTF	≤ 0.2
GLTV	≤ 0.2
VVEP	≤ 0.2
QYRH	0.541
NDYD	≤ 0.2
HGAA	≤ 0.2
DESE	≤ 0.2
AQAA	≤ 0.2
GRDK	≤ 0.2
HFNR	≤ 0.2
VAYA	≤ 0.2
SHNH	≤ 0.2
RYLN	≤ 0.2
KIQG	≤ 0.2
LPCI	≤ 0.2
GDHS	≤ 0.2
WLAT	≤ 0.2
RHDP	≤ 0.2
SDSA	≤ 0.2
RPAM	≤ 0.2
LKER	≤ 0.2
PLHI	≤ 0.2

Variant	one-hybrid fitness for binding NBS DNA
DNTS	≤ 0.2
YMNS	≤ 0.2
HTAH	≤ 0.2
TGYC	≤ 0.2
RNGF	≤ 0.2
DLLY	≤ 0.2
DTWD	≤ 0.2
RNLW	≤ 0.2
SMHQ	≤ 0.2
RPSS	≤ 0.2
LSIG	≤ 0.2
QLLA	≤ 0.2
RPAT	≤ 0.2
MLDL	≤ 0.2
PGER	≤ 0.2
MKAG	≤ 0.2
EVLW	≤ 0.2
DQTY	≤ 0.2
MVEC	0.453
PETI	≤ 0.2
